Laboratory results taken from the supplement of paper PMC4967469.

Experiments:
Experiment in all cases: Viability of human cancer cell lines after 72 h of drug (GDSC screen)
[1] = compound: Cc1sc2c(c1C)C(c1ccc(Cl)cc1)=N[C@@H](CC(=O)OC(C)(C)C)c1nnc(C)n1-2 [JQ1]
Experimental: (§1)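 Human cancer cell lines in 384-well plates, medium with 10% serum, drug for 72 h over a 256-fold dose range (nine 2-fold or five 4-fold steps up to the top dose). Adherent lines were fixed and stained with the nucleic acid dye Syto60, suspension lines read with resazurin; signal relative to control wells, capped at 0 and 100%. One two-parameter sigmoid per drug and line, fitted in a mixed model over all curves with the slope shared within a line.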

[2] = compound: COCC[n+]1c2c(n(Cc3cnccn3)c1C)C(=O)c1ccccc1C2=O [YM155]; conditions: top dose 5.12 µM
Experimental: as §1

[3] = compound: C[C@]1(O)C[C@@H](c2nc(-c3ccc4ccc(-c5ccccc5)nc4c3)c3c(N)nccn32)C1 [OSI-906]; conditions: top dose 2.56 µM; top dose inferred
Experimental: as §1

[4] = compound: CC(=O)O[C@@]12CO[C@@H]1C[C@H](O)[C@@]1(C)C(=O)[C@H](O)C3=C(C)[C@@H](OC(=O)[C@H](O)[C@@H](NC(=O)OC(C)(C)C)c4ccccc4)C[C@@](O)([C@@H](OC(=O)c4ccccc4)[C@H]21)C3(C)C [Docetaxel]; conditions: top dose 0.0125 µM
Experimental: as §1

[5] = compound: Cc1ccc(C(=O)N(CCCN)[C@@H](c2nc3cc(Cl)ccc3c(=O)n2Cc2ccccc2)C(C)C)cc1 [SB-715992]; conditions: top dose 0.128 µM; top dose inferred
Experimental: as §1

[6] = compound: O=C(/C=C/c1cccc(S(=O)(=O)Nc2ccccc2)c1)NO [Belinostat]; conditions: top dose 20 µM; top dose inferred
Experimental: as §1

[7] = compound: CC1(C)CNc2cc(NC(=O)c3cccnc3NCc3ccncc3)ccc21 [AMG-706]; conditions: top dose 2 µM; top dose inferred
Experimental: as §1

[8] = compound: CN1CCN(c2ccc([N+](=O)[O-])c3no[n+]([O-])c23)CC1 [NSC-207895]; conditions: top dose 20 µM; top dose inferred
Experimental: as §1

[9] = compound: CCOc1nc(NC(=O)Cc2cc(OC)ccc2OC)cc(N)c1C#N [JNK Inhibitor VIII]; conditions: top dose 10 µM; top dose inferred
Experimental: as §1

[10] = compound: COC(=O)[C@H](CCSC)NC(=O)c1ccc(NC[C@@H](N)CS)cc1-c1ccccc1 [FTI-277]; conditions: top dose 1.024 µM; top dose inferred
Experimental: as §1

[11] = compound: c1ccc2c(CCNc3ccc(Nc4ccncc4)cc3)c[nH]c2c1 [JNJ-26854165]; conditions: top dose 10 µM
Experimental: as §1

[12] = top dose 1 µM, screen: GDSC drug entry 1218, top dose inferred
[13] = top dose 2.56 µM, screen: GDSC drug entry 163

Cell Line	AUC [1, 12]	IC50 [1, 12] [nM]	AUC [1, 13]	IC50 [1, 13] [nM]	AUC [2]	IC50 [2] [nM]	AUC [3]	IC50 [3] [nM]	AUC [4]	IC50 [4] [nM]	AUC [5]	IC50 [5] [nM]	AUC [6]	IC50 [6] [nM]	AUC [7]	IC50 [7] [nM]	AUC [8]	IC50 [8] [nM]	AUC [9]	IC50 [9] [nM]	AUC [10]	IC50 [10] [nM]	AUC [11]	IC50 [11] [nM]
P12-ICHIKAWA (T-cell lymphoblastic leukaemia, suspension)	0.994	> 1000	0.757	708	0.102	26.6	0.994	> 2560	0.99	> 12.5	0.549	10.6	0.133	135	0.993	> 2000	0.862	11100	0.993	> 10000	0.993	> 1020	0.967	> 10000
PANC-02-03 (pancreas, adherent)	0.979	> 1000	0.706	692	0.087	< 20	0.787	1350	0.713	3.56	0.927	> 128	0.361	475	0.915	> 2000	0.981	> 20000	0.948	> 10000	0.944	> 1020	0.904	> 10000
PANC-04-03 (pancreas, adherent)	0.974	> 1000	0.8	2280	0.205	23.8	0.885	> 2560	0.855	> 12.5	0.961	> 128	0.862	> 20000	0.92	> 2000	0.978	> 20000	0.977	> 10000	0.912	> 1020	0.888	> 10000
PCI-4B (head and neck, adherent)	0.976	> 1000	0.564	238	0.022	< 20	0.987	> 2560	0.381	0.374	0.645	19.6	0.311	381	0.977	> 2000	0.815	10200	0.96	> 10000	0.94	> 1020	0.788	4120
PCI-6A (head and neck, adherent)	0.986	> 1000	0.547	214	0.195	40.5	0.988	> 2560	0.296	0.211	0.656	21.4	0.206	173	0.971	> 2000	0.988	> 20000	0.972	> 10000	0.981	> 1020	0.84	6700
PCI-15A (head and neck, adherent)	0.982	> 1000	0.887	> 2560	0.986	> 5120	0.93	> 2560	0.862	10.9	0.837	87	0.984	> 20000	0.911	> 2000	0.985	> 20000	0.785	4330	0.987	> 1020	0.791	4550
PE/CA-PJ15 (head and neck, adherent)	0.959	> 1000	0.893	> 2560	0.059	< 20	0.982	> 2560	0.803	6.78	0.957	> 128	0.556	1800	0.947	> 2000	0.983	> 20000	0.961	> 10000	0.974	> 1020	0.836	7390
PL4 (pancreas, adherent)	0.986	> 1000	0.972	> 2560	0.031	< 20	0.971	> 2560	0.843	9.27	0.978	> 128	0.698	4610	0.973	> 2000	0.945	> 20000	0.987	> 10000	0.987	> 1020	0.956	> 10000
RCM-1 (large intestine, adherent)	0.96	> 1000	0.816	1830	0.674	1090	0.982	> 2560	0.837	11.1	0.973	> 128	0.5	1250	0.985	> 2000	0.984	> 20000	0.985	> 10000	0.962	> 1020	0.91	> 10000
RERF-LC-MS (lung adenocarcinoma, adherent)	0.968	> 1000	0.925	> 2560	0.225	49.2	0.982	> 2560	0.61	1.58	0.933	> 128	0.455	937	0.987	> 2000	0.932	> 20000	0.986	> 10000	0.955	> 1020	0.821	5990
RH-41 (rhabdomyosarcoma, adherent)	0.992	> 1000	0.818	1160	0.019	< 20	0.614	311	0.627	1.64	0.766	40.1	0.629	2660	0.968	> 2000	0.89	16400	0.991	> 10000	0.989	> 1020	0.936	> 10000
RKN (ovary, adherent)	0.984	> 1000	0.837	1860	0.118	< 20	0.941	> 2560	0.553	1.1	0.731	38.1	0.495	1210	0.976	> 2000	0.957	> 20000	0.983	> 10000	0.968	> 1020	0.903	> 10000
RO82-W-1 (thyroid, adherent)	0.98	> 1000	0.856	> 2560	0.076	< 20	0.956	> 2560	0.764	5.78	0.982	> 128	0.508	1320	0.924	> 2000	0.891	> 20000	0.97	> 10000	0.953	> 1020	0.944	> 10000
RPMI-2650 (head and neck, adherent)	0.956	> 1000	0.601	310	0.06	< 20	0.894	> 2560	0.698	2.95	0.922	> 128	0.342	439	0.984	> 2000	0.91	> 20000	0.961	> 10000	0.894	> 1020	0.953	> 10000
SAS (head and neck, adherent)	0.955	> 1000	0.93	> 2560	0.03	< 20	0.893	> 2560	0.665	2.38	0.902	> 128	0.38	560	0.976	> 2000	0.768	8350	0.978	> 10000	0.967	> 1020	0.854	9380
SAT (head and neck, adherent)			0.828	> 2560	0.229	32.4	0.937	> 2560	0.7	3.95	0.956	> 128	0.481	1080	0.963	> 2000	0.975	> 20000	0.882	> 10000	0.841	> 1020	0.791	7650
SCC-9 (head and neck, adherent)	0.895	> 1000	0.433	99.6	0.037	< 20	0.971	> 2560	0.645	2.21	0.57	13.1	0.398	607	0.977	> 2000	0.866	> 20000	0.979	> 10000	0.941	> 1020	0.909	> 10000
SCC-25 (head and neck, adherent)	0.954	> 1000	0.722	750	0.057	< 20	0.973	> 2560	0.526	0.928	0.756	49.1	0.279	270	0.982	> 2000	0.907	> 20000	0.984	> 10000	0.967	> 1020	0.911	> 10000
SF295 (glioma, adherent)	0.972	> 1000	0.663	473	0.131	< 20	0.979	> 2560	0.88	> 12.5	0.755	46.7	0.46	964	0.962	> 2000	0.958	> 20000	0.89	> 10000	0.952	> 1020	0.836	7380
SK-HEP-1 (liver, adherent)	0.874	866	0.768	897	0.211	48.5	0.96	> 2560	0.716	3.04	0.949	> 128	0.646	3080	0.989	> 2000	0.735	5560	0.989	> 10000	0.958	> 1020	0.949	> 10000
SK-MEL-30 (melanoma, adherent)	0.984	> 1000	0.541	208	0.056	< 20	0.898	> 2560	0.899	> 12.5	0.906	> 128	0.444	870	0.932	> 2000	0.806	10900	0.985	> 10000	0.929	> 1020	0.845	7840
SK-N-AS (neuroblastoma, adherent)	0.982	> 1000	0.896	> 2560	0.283	70.1	0.978	> 2560	0.867	> 12.5	0.804	76.2	0.263	234	0.963	> 2000	0.943	> 20000	0.974	> 10000	0.981	> 1020	0.917	> 10000

By IC50 is meant the dose at which the fit gives 50% viability; where the fit passes the top or lowest dose, that dose stands as a limit. For AUC the same curve is integrated over the 256-fold range of doses and scaled to a fraction; it is 1 without any effect and falls as sensitivity rises. For some of these results: The top dose, if marked as inferred, is not printed in the source and was worked back from the curve model. For some of these results: An entry number marks a drug with two screens in the source, which often give different values.
